Reference: publication PMC4336329 (PLoS ONE, 2015)
Out of some 310,000 compounds screened, about 14,000 (4.5%) showed an effect of 50% or more. Effects have a minus sign here. The list shows a part of the results.

target: human ether-à-go-go-related gene (hERG) potassium channel (human, UniProt Q12809); assay: primary screen, population patch clamp on CHO cells stably expressing hERG
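Note: peak tail current of the secondary pulse compared with the same well before compound.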

Sequence of human ether-à-go-go-related gene (hERG) potassium channel (Q12809 whole entry, looked up): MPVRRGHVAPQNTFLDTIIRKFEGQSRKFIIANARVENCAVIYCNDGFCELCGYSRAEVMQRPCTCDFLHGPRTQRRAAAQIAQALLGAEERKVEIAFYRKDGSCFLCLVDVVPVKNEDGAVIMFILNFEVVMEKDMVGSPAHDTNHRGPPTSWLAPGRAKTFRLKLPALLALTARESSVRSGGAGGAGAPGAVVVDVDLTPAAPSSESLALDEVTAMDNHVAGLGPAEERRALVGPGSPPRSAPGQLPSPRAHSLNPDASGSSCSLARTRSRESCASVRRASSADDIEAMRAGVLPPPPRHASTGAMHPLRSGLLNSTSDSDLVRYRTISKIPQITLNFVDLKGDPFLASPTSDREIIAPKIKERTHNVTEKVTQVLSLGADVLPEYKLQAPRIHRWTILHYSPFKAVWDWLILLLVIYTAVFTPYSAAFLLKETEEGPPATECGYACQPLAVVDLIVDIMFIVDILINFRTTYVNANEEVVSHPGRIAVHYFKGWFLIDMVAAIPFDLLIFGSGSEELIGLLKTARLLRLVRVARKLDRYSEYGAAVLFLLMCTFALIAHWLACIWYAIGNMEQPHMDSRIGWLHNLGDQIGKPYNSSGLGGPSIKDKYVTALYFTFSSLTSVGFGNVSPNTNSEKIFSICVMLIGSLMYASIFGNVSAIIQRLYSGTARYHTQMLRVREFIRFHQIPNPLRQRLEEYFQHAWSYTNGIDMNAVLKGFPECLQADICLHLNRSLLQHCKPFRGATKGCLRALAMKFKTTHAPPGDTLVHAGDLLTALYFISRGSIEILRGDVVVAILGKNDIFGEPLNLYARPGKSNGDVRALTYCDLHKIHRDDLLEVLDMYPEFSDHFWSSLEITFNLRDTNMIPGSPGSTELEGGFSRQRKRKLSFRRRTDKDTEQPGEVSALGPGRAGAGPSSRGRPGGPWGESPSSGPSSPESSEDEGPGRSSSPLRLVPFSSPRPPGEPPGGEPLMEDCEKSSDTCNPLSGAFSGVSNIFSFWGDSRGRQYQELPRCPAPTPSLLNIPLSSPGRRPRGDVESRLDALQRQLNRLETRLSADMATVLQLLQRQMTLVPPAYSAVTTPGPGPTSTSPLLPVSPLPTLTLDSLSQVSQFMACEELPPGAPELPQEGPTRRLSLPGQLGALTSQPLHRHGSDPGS

Row | Structure (SMILES) | hERG current change (%, negative = inhibition) at 10uM
1 | CC1=CC(C)(C)N(S(=O)(=O)c2ccc(C)cc2)c2ccccc21 | -9.72%
2 | COc1cc(C2C(C#N)=C(N)Oc3n[nH]c(-c4cccnc4)c32)ccc1OCC(N)=O (stereo not shown) | -3.5%
3 | Cc1c(C(=O)N(Cc2ccccc2)C2CCS(=O)(=O)C2)oc2ccccc12 (stereo not shown) | -38.5%
4 | CC(=O)NCCn1c(SCc2cccc([N+](=O)[O-])c2)nc2ccccc2c1=O | 1.95%
5 | NC1=NC2(CCC(c3ccccc3)CC2)n2c(nc3ccccc32)N1 (stereo not shown) | -40.8%
6 | Cn1ncc(Cl)c1C(=O)Nc1ccncc1 | 8.99%
7 | CC(=O)Nc1ccc(NC(=O)CSC2=NS(=O)(=O)c3cc(Cl)ccc3N2)cc1 | 6.45%
8 | CCOC(=O)C(=O)Nc1ccc(OC)c(Cl)c1 | 6.78%
9 | Cn1cc(S(=O)(=O)c2ccccc2)c(=O)c2cc(F)c(N3CCOCC3)cc21 | 7.18%
10 | Cc1onc(-c2ccccc2)c1C(=O)N/N=C/c1ccc([N+](=O)[O-])s1 | -4.85%
11 | CCCn1c(C)cc(-c2csc(N)n2)c1C.Cl | 12.7%
12 | Cc1c(CNC(=O)c2nn3c(c2Cl)NC(c2ccccc2)CC3C(F)(F)F)cnn1C (stereo not shown) | -4.42%
13 | COc1cccc(CNc2ccc(F)c(Cl)c2)c1 | 1.33%
14 | CC(=O)C1CCC2C3CCC4=CC(=O)CC[C@]4(C)[C@@]3(F)C(O)C[C@]12C (stereo partly shown) | 10.2%
15 | Cc1c(Cl)cccc1NC(=S)N1CCN(C(=O)c2ccco2)CC1 | -1.17%
16 | CCOc1cc(/C=C/c2ccc3cccc([N+](=O)[O-])c3n2)cc(Cl)c1O | 14.6%
17 | CCCCCCCCc1nnc(N)s1 | -16.2%
18 | COC(=O)C1(CC2CC(c3cccc(Br)c3)=NO2)CCN(C(=O)OC(C)(C)C)CC1 (stereo not shown) | -14.5%
19 | CC(=O)N(CCCCl)C(C#N)c1ccccc1 (stereo not shown) | 33.8%
20 | Cc1ccc(C)c(Cc2c(C)nc(C)[nH]c2=O)c1 | 12.5%
21 | O=C(Nc1cc(Cl)ccc1Cl)c1ccc(-c2ccccc2)cc1 | -2.52%
22 | NS(=O)(=O)c1cccnc1Nc1cccc(C(F)(F)F)c1 | -9.51%
23 | CCCOc1ccc(C(=O)CCCC(=O)c2ccc(OCCC)cc2)cc1 | 22%
24 | COc1ccc(N2C(=O)/C(=C/c3ccc([N+](=O)[O-])cc3)N=C2C)cc1 | 14%
25 | COc1ccc(Cc2nc3ccc(C(=O)NCC(C)(C)OC)cc3o2)cc1 | 20.3%
